{"source": "PubChem BioAssay AID488969", "about": "(Vanderbilt High Throughput Screening Facility, 2010)", "note": "Whole data set: some 110,000 compounds, median “z-score” near -0.1, cut for the highest 2% near 2. Some of the results follow.", "data": [{"target": "Metabotropic glutamate receptor 8 (Rattus norvegicus) (UniProt P70579)", "sequence (P70579 whole entry, looked up)": "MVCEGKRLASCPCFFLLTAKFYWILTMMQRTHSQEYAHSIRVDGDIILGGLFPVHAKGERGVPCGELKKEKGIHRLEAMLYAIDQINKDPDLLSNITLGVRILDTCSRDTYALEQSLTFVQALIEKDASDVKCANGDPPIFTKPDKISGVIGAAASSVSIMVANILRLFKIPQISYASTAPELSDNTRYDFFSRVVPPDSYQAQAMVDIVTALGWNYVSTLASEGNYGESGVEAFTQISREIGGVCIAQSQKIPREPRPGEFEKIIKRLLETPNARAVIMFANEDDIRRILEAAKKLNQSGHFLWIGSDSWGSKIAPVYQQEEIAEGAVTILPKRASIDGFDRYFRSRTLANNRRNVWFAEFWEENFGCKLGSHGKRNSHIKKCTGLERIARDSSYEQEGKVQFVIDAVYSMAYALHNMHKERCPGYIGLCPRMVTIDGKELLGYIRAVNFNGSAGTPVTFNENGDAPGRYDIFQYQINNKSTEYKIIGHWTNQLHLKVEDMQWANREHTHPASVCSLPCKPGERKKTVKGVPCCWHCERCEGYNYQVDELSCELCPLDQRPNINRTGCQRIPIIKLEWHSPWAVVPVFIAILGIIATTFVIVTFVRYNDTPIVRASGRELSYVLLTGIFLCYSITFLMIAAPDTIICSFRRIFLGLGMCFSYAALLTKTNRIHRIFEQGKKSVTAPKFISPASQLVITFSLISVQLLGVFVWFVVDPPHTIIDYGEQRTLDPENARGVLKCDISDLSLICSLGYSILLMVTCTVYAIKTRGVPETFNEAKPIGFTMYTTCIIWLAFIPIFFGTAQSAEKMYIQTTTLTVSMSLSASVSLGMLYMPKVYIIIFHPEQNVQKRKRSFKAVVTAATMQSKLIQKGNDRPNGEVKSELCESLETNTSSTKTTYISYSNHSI", "assay": "rat mGluR8 modulators via GIRK flux, primary screen, cell-based, thallium flux, HTS (AID 488969)", "conditions": "HEK293 rat mGluR8, GIRK (G protein-gated inwardly rectifying potassium channel) thallium flux, FluoZin2; at 10 µM; stronger effect = higher value; submaximal glutamate (EC20) added with thallium", "values": [{"smiles": "CCc1ccc(C(C)NC(=O)c2ccc(F)cc2)cc1", "note": "(configuration not stated)", "z-score": -0.0454}, {"smiles": "Cc1cc(C(=O)CSc2nc3ccccc3c(=O)n2C)c(C)n1Cc1ccc2c(c1)OCO2", "z-score": -0.571}, {"smiles": "CCc1c(C)sc(NC(=O)CCc2ccc(OC)cc2)c1C(N)=O", "z-score": 1.75}, {"smiles": "COc1ccc(NC(=S)Nc2ncccc2C)c(OC)c1", "z-score": -0.494}, {"smiles": "Cc1cc(C)c(-c2cc(NC(=O)COC(=O)c3ccc(C#N)cc3)n(-c3ccccc3)n2)cc1C", "z-score": 0.345}, {"smiles": "O=C(O)/C=C/c1cn(-c2ncc(C(F)(F)F)cc2Cl)c2ccccc12", "z-score": -0.0759}, {"smiles": "CCCOc1ccc(-c2cn3ccccc3n2)cc1[N+](=O)[O-]", "z-score": 0.152}, {"smiles": "N#Cc1cn(CCCOc2ccccc2)c2ccccc12", "z-score": -0.17}, {"smiles": "COC(=O)c1cc(NC(=O)C2CC=CCC2C(=O)O)cc(C(=O)OC)c1", "note": "(configuration not stated)", "z-score": 0.249}, {"smiles": "NC1=NC2(CCCCC2)N(c2ccc(F)cc2)C(N)=N1", "z-score": -0.0907}, {"smiles": "Fc1ccc(-c2nnc(CSc3nnc(-c4ccc5c(c4)OCO5)o3)o2)cc1", "z-score": 0.268}, {"smiles": "COc1ccc(C)cc1NC(=O)CSc1nnc(-c2ccco2)n1N", "z-score": -0.334}, {"smiles": "CCN1CCN(C(=O)c2ccc(Sc3ccccc3Cl)c([N+](=O)[O-])c2)CC1", "z-score": 0.195}, {"smiles": "CCCCn1c(SCC(N)=O)nc2ccc(N3CCOCC3)cc2c1=O", "z-score": 1.29}, {"smiles": "COC(=O)c1cccc(NS(=O)(=O)c2ccc(OC)c(OC)c2)c1C", "z-score": -0.378}, {"smiles": "Cc1cc(C)n(-c2nnc3n2N=C(c2ccccc2)CS3)n1", "z-score": -0.411}, {"smiles": "CCc1nc2ccccc2c(NC(=O)CN2CCC(C)CC2)c1C", "z-score": -0.409}, {"smiles": "NC(=O)c1ccc(NC(=O)CCCN2C(=O)c3ccccc3C2=O)cc1", "z-score": -0.211}, {"smiles": "Cc1ccccc1-n1nnnc1SCc1csc(-c2ccccc2)n1", "z-score": -0.0982}, {"smiles": "O=C(COc1ccc(Cl)cc1)N1CCN(c2ccc([N+](=O)[O-])c(N3CCCCC3)c2)CC1", "z-score": -0.692}, {"smiles": "COc1cccc2c1OC1(C)CC2N(C(=O)c2ccco2)C(=S)N1c1ccc(F)cc1", "note": "(configuration not stated)", "z-score": -0.086}, {"smiles": "COc1ccc(NC(=O)CCc2nc(-c3ccc(C)cc3)no2)c(OC)c1", "z-score": 0.634}, {"smiles": "O=C(COC(=O)c1ccncc1)Nc1cc(Cl)c(Cl)cc1Cl", "z-score": 0.0314}, {"smiles": "COc1cc2c(cc1OC)CN(C(=O)c1cccs1)CC2", "z-score": 0.142}, {"smiles": "CCC(=O)Nc1c(S(=O)(=O)c2ccc(C)cc2)c2nc3ccccc3nc2n1C(C)c1ccccc1", "note": "(configuration not stated)", "z-score": -0.22}, {"smiles": "CCOC(=O)C1CCN(c2c(N3CCCCCC3)c(=O)c2=O)CC1", "z-score": 0.444}, {"smiles": "COC(=O)c1ccc(CN2C(=O)NC3(CCC(C)CC3)C2=O)o1", "note": "(configuration not stated)", "z-score": 0.988}, {"smiles": "CC1CC1c1ccc(/C=C(\\C#N)C(=O)Nc2ccc(Cl)cc2Cl)o1", "note": "(configuration not stated)", "z-score": -0.0179}, {"smiles": "Cc1nc(NC(=O)c2cc3c(s2)CCCCC3)sc1C(=O)N(C)C", "z-score": -0.848}, {"smiles": "COc1ccc(CCNc2oc(Cc3cccc4ccccc34)nc2C#N)cc1OC", "z-score": 0.0449}, {"smiles": "Cc1ccc(S(=O)(=O)N/N=C/c2c(C)nn(-c3ccccc3)c2C)cc1", "z-score": -0.215}, {"smiles": "Cc1nc2cc(C(=O)OCC(=O)N(CC(C)C)C3CCS(=O)(=O)C3)ccc2n1-c1ccccc1", "note": "(configuration not stated)", "z-score": -0.459}, {"smiles": "CCOC(=O)N1CCN(C(=O)Nc2ccc3oc(C)nc3c2)CC1", "z-score": -0.0428}, {"smiles": "CCCc1nc(NCc2ccccn2)c2nnn(Cc3ccccc3F)c2n1", "z-score": -0.45}, {"smiles": "COc1ccc(OCC(O)CN2C(=O)NC(C)(C)C2=O)cc1", "note": "(configuration not stated)", "z-score": -0.716}, {"smiles": "O=C(Oc1c(Cl)cc(Cl)c2cccnc12)c1cccs1", "z-score": 2.7}, {"smiles": "COc1ccc(C(C(=O)NC2CCCCC2)N(C(=O)c2sc(C)nc2C)c2ccc(C(C)=O)cc2)cc1", "note": "(configuration not stated)", "z-score": 0.0467}, {"smiles": "Cn1nc(-c2ccccc2)c(CSc2ccccc2Cl)c1Cl", "z-score": -0.141}, {"smiles": "NC(=O)c1ccccc1N/C=C/C(=O)c1ccccc1", "z-score": 0.167}, {"smiles": "COc1ccc(C2(C(=O)Nc3ccc(S(=O)(=O)Nc4nc(C)cc(C)n4)cc3)CCCC2)cc1OC", "z-score": -0.623}, {"smiles": "COc1ccc(C(=O)CSc2nnc(CN3CCCCC3)n2-c2ccc(F)cc2)cc1", "z-score": 0.202}, {"smiles": "Cc1cc(C)nc(N2CCC(C(=O)NCc3cccs3)CC2)n1", "z-score": 0.392}, {"smiles": "Cc1ccc(S(=O)(=O)Oc2ccc(C3C4=C(CCCC4=O)OC4=C3C(=O)CCC4)cc2)cc1", "z-score": -0.134}, {"smiles": "C=CCSC1=C(C#N)C(c2ccc(C(C)C)cc2)CC(=O)N1", "note": "(configuration not stated)", "z-score": 0.801}, {"smiles": "CCOc1cccc(/C(O)=C2/C(=O)C(=O)N(Cc3ccco3)C2c2ccncc2)c1", "note": "(configuration not stated)", "z-score": -0.185}, {"smiles": "CCn1ncc(Cl)c1C(=O)Nc1ccncc1", "z-score": -0.171}, {"smiles": "Cc1ccc(-c2n[nH]c(=S)n2/N=C/C=C\\c2ccccc2[N+](=O)[O-])cc1", "z-score": 0.22}, {"smiles": "COCCNC(=O)C1CC(c2cccc([N+](=O)[O-])c2)=NO1", "note": "(configuration not stated)", "z-score": 0.0419}, {"smiles": "CC(=O)c1cc2c(cc1NC(=O)c1c(-c3ccccc3)noc1C)OCO2", "z-score": -0.49}, {"smiles": "Cc1ccc(N(CC(O)Cn2c3ccccc3c3ccccc32)S(C)(=O)=O)c(C)c1", "note": "(configuration not stated)", "z-score": -0.0609}, {"smiles": "O=C(COC(=O)c1sc2ccccc2c1Cl)NCC1CCCCC1", "z-score": -0.194}, {"smiles": "CCOC(=O)CCc1c(C)c2ccc(OCc3cc([N+](=O)[O-])ccc3OC)cc2oc1=O", "z-score": 0.15}]}]}
